Measured values from PubChem BioAssay AID504332 (National Center for Advancing Translational Sciences (NCATS), 2011).
The campaign covered roughly 350,000 compounds. About 31,000 (8.9%) were called active. Inconclusive results, whose numbers are uncertain, are shown with a selection of clear calls. The call rests on the fitted dose curve; in most records, active means well fitted inhibition curve with a large enough effect; inconclusive means small, poorly fitted or top-dose-only effect; inactive means no such curve, though single readings can be large or run the other way. A potency beside an inconclusive call is a rough fit, not a confirmed value.

biological target: Histone-lysine N-methyltransferase EHMT2 (Homo sapiens) (UniProt Q96KQ7); assay: qHTS Assay for Inhibitors of Histone Lysine Methyltransferase G9a; settings: G9a H3K9 monomethylation, AlphaScreen, 2 h; activity, negative = inhibition: at 59 µM (top of the series) unless noted; further: nearly all actives have a fitted effect of over 75% in size
UniProt Q96KQ7, sequence (Q96KQ7 whole entry, looked up): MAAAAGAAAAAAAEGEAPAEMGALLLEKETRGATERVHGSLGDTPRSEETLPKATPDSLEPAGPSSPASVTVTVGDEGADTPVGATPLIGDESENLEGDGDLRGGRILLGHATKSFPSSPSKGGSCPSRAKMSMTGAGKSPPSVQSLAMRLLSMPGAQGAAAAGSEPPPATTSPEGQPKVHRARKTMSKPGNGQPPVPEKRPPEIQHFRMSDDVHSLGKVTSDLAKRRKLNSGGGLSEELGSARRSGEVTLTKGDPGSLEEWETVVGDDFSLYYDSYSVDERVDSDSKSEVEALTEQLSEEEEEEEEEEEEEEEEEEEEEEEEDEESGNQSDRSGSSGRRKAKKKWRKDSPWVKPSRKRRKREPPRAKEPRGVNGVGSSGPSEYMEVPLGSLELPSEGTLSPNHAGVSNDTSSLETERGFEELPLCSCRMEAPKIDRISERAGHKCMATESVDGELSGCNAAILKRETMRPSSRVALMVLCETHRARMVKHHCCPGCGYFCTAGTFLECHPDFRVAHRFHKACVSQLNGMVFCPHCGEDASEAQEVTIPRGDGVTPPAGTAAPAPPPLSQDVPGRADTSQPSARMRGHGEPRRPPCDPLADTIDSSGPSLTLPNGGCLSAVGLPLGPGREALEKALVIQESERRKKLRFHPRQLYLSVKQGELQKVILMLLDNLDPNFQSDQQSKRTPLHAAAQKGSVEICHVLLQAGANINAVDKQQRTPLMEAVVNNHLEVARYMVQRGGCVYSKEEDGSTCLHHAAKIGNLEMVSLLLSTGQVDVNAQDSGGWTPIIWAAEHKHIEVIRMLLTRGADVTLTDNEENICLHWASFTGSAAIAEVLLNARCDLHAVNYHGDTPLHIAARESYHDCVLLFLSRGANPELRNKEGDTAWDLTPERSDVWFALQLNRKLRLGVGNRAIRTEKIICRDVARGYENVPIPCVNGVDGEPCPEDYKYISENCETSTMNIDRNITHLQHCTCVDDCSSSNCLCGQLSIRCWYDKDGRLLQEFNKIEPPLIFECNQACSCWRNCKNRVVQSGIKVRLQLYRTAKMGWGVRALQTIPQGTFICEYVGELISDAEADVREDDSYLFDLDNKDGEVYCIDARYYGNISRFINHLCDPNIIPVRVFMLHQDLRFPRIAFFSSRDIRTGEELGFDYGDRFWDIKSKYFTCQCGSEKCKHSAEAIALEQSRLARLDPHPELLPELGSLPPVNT
Summary of the method: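 Readings reflect AlphaScreen signal from monomethyl-H3K9 antibody detection. HMT at 20 nM; substrate b-H3K9 500 nM; cofactor SAM 20 uM; 2 h RT reaction; compounds tested as titrations in qHTS with 15 min preincubation.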
On the % scale 0 is the no-effect control and ±100 the full control effect; potency means the concentration at half of the fitted maximal effect; tags describe the fitted curve by direction and shape.

SMILES | Potency | activity, negative = inhibition
COc1cc(Cl)c(C)cc1NC(=O)CSc1nc2c(c(=O)[nH]1)CCC2 | inconclusive: 25.1 µM [inhibitor, partial curve, poor fit] | 
Cc1ccccc1Nc1cc(C)c2c(O)cccc2n1 | inconclusive: 79.4 µM [inhibitor, single point] | 
CCC(Sc1nc2ccncc2[nH]1)C(=O)Nc1cc(Cl)ccc1C (centres undefined) | inconclusive: 50.1 µM [inhibitor, partial curve] | 
Cc1cc(NC(=O)Cn2cc([N+](=O)[O-])cn2)no1 | active: 50.1 µM | 
CCNC(=O)CSc1nnc(-c2ccc(OC)cc2)n1CC(C)C | inconclusive: 11.2 µM [inhibitor, partial curve] | 
CCc1ccccc1NC(=O)Cn1c(=O)n(CCCCCC(=O)NCc2ccc(C)cc2)c(=O)c2sccc21 | inactive | 
Cc1ccccc1-n1nc(C)c2c1N=C1C(Cl)=CC(Cl)=CN1C2c1ccc(C(=O)O)cc1 (centres undefined) | active: 25.1 µM | 
Cc1cccc(CN2CCN(C(=O)CN(C)C(C)C(=O)Nc3ccc(C(N)=O)cc3)CC2)c1 (centres undefined) | inconclusive: 6.31 µM [inhibitor, single point] | 
CSc1nc2ccc(NC(=O)CSc3nnc(N)s3)cc2s1 | inconclusive: 28.2 µM [inhibitor, single point] | 
COCCN(CC(=O)Nc1cccc(C)c1C)C(=O)CN1C(=O)NC2(CCCCC2)C1=O | inconclusive: 6.31 µM [inhibitor, single point] | 
Cc1ccc(-n2nc(-c3ccco3)cc2C(=O)O)c(C)c1 | active: 17.8 µM | 
O=[N+]([O-])c1cnccc1Nc1cccc(F)c1 | active: 7.08 µM | 
O=C(CSc1ccc(-c2ccco2)nn1)NCc1ccccc1Cl | inconclusive: 79.4 µM [inhibitor, single point] | 
CCOc1cc(/C=C2\SC(=S)N(Nc3ccccc3)C2=O)ccc1O |  | inconclusive: -108% [inhibitor]
CCOC(=O)N1CCN(C(=O)c2ccc3c(=O)n(-c4ccc(OC)cc4OC)c(=S)[nH]c3c2)CC1 | inconclusive: 70.8 µM [inhibitor, single point] | 
Cc1cc(C(=O)CSc2ccc(F)cc2)cc(C)c1O | inconclusive: 1.12 µM [inhibitor, full curve] | 
CCc1ccc(S(=O)(=O)c2nnn3c2nc(N2CCOCC2)c2sccc23)cc1 | inactive | 
Cc1ccc2[nH]c(=O)c(CN3CCCCC3)c(-c3ccccc3)c2c1 | inconclusive: 44.7 µM [inhibitor, partial curve] | 
CC(=O)c1ccc(-n2c(CCC(=O)O)ccc2-c2ccccc2)cc1 |  | inactive: -13.6% [at 2.33 µM]
